Drawing on PubChem BioAssay AID1745853 (National Center for Advancing Translational Sciences (NCATS), 2022), this text covers activity change, negative = inhibition for 30 molecules.

Common to all, as to test: Primary Screen for Target Class Profiling of Small Molecule Inhibitors of Methyltransferases
Assay [1] addresses Glycine N-methyltransferase (Homo sapiens) (UniProt Q14749). The note with it: purified enzyme, MTase-Glo SAH luminescence; measured here: GNMT inhibition; at 40 µM; stronger effect = lower value. A digest of the protocol:
(§1)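 Each enzyme was reacted with SAM and its substrate, with compounds tested once at 40 uM; SAH formed was read by MTase-Glo luminescence.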

In assay [2] the target is Guanidinoacetate N-methyltransferase (Homo sapiens) (UniProt Q14353). To be noted: purified enzyme, MTase-Glo SAH luminescence; measured here: GAMT inhibition; at 40 µM; stronger effect = lower value. In short, it runs like this:
as §1

The target in assay [3] is Histamine N-methyltransferase (Homo sapiens) (UniProt P50135). To be noted: purified enzyme, MTase-Glo SAH luminescence; measured here: HNMT inhibition; at 40 µM; stronger effect = lower value. In short, it runs like this: as §1
Assay [4] addresses Nicotinamide N-methyltransferase (Homo sapiens) (UniProt P40261). To be noted: purified enzyme, MTase-Glo SAH luminescence; measured here: NNMT inhibition; at 40 µM; stronger effect = lower value. A digest of the protocol: as §1
The target in assay [5] is Phenylethanolamine N-methyltransferase (Homo sapiens) (UniProt P11086). The note with it: purified enzyme, MTase-Glo SAH luminescence; measured here: PNMT inhibition; at 40 µM; stronger effect = lower value. In short, it runs like this: as §1

This is one part of the list. These are further read-outs of the screen, such as a control signal, another cell line or another target. No call is given for them.
% is scaled to controls: 0 for no effect and ±100 for the full control effect.

`COc1ccc(N(C(=O)c2cccs2)S(=O)(=O)c2ccc3c(c2)n(C)c(=O)n3C)cc1`: the activity change, negative = inhibition in assay [1] is -8.01%; in assay [2], 3.85%; in assay [3] it was -5.13%; in assay [4], -23.2%; in assay [5] it was -4.5%.
Turning to `c1cc(Nc2cc(C3CC3)[nH]n2)nc(Nc2ccc3nc[nH]c3c2)n1`, the activity change, negative = inhibition is -29% in assay [1]; -5.2% in assay [2]; -26% in assay [3]; -34% in assay [4]; -17.8% in assay [5].
In the case of `Cc1cc(C)c(CNC(=O)c2cc(-c3cnn(C)c3C)cc3c2OCCN3C)c(=O)[nH]1`, the activity change, negative = inhibition in assay [1] was -75.5%; in assay [2], -66.9%; in assay [3], -81.3%; in assay [4], -65.9%; in assay [5], -55%.
The corresponding values for `Cc1ccc(NC(=O)N2CCC(n3c(C)cnc3-c3cccnc3)C2)cc1C` (stereo not drawn) are 0.889%, -0.81%, -1.72%, 4.63% and 2.68%.
On to `O=C1NC[C@@H](CCC(=O)N2CCc3ccccc32)N2C[C@@H](NS(=O)(=O)c3ccccc3)C[C@@H]12`, for which the activity change, negative = inhibition in assay [1] is -4.07%; in assay [2], -1.97%; in assay [3], -0.165%; in assay [4] it was -4.1%; in assay [5], -0.71%.
In the same order, the values of `O=C(C1CCCC1)N1CC2(CCN(Cc3ccccn3)C2)OCc2ccccc21` (stereo not drawn) are -0.752%, -3.89%, -0.956%, -2.77% and -4.07%.
As for `CC(=O)NC1CC2(CCN(C(=O)C3CCN(C)CC3)CC2)c2ccccc21` (stereo not drawn), the activity change, negative = inhibition in assay [1] is -5.9%; in assay [2] it was -6.59%; in assay [3], -47.3%; in assay [4] it was -10.2%; in assay [5], -15.1%.
The corresponding values for `CCCn1c(=O)c2ccc(C(=O)NC3CCCC3)cc2n2c(=O)n(Cc3ccccc3)nc12` are -6.54%, -0.424%, 0.138%, -1.78% and -2.24%.
In the same order, the values of `COC(=O)c1ncn2c1C(=O)N(Cc1ccc(Cl)cc1)C(C)(C(=O)NC1CCCC1)C2` (stereo not drawn) are 3.3%, 5.7%, -0.268%, 3.79% and -1.45%.
As for `COC(=O)[C@@H]1Cc2ncn(Cc3ccc(Cl)cc3)c2CN1Cc1cccnc1`, the activity change, negative = inhibition in assay [1] was -7.46%; in assay [2], -0.861%; in assay [3], -4.54%; in assay [4], -2.69%; in assay [5], -8.11%.
As to `O=C1c2ccccc2-c2nc3nnnn3nc21` (tested in a mixture with another compound), the results for the activity change, negative = inhibition in assay [2], in assay [4] and in assay [5] were -92.4%, -77% and -14.8%, respectively.
As to `CC(=O)NCCNc1nc2c(-c3cccc(Br)c3)nnn2c2ccccc12`, the activity change, negative = inhibition in assay [1] was -8.09%; in assay [2], 0%; in assay [3] it was 8.72%; in assay [4] it was 5.11%; in assay [5], 0.288%.
The corresponding values for `COCC1CN(C)CC12CCN(Cc1ccc(Br)o1)CC2` (stereo not drawn) are -6.79%, -5.93%, -6.64%, -9.15% and -7.46%.
In the same order, the values of `CCCn1c(=O)c2cc(F)ccc2n2c(SCC(=O)N(C)c3ccccc3)nnc12` are -3.21%, 0%, 4.8%, -10.7% and 1.87%.
In the same order, the values of `CCOc1ccc(S(=O)(=O)NCc2ccncc2)cc1` are -6.8%, 4.7%, 1.53%, 8.28% and -2.31%.
Turning to `CCC(C)(C)C1CCc2c(sc(NC(=O)c3ccc(Br)cc3)c2C#N)C1` (stereo not drawn), the activity change, negative = inhibition in assay [1] is 6.4%; in assay [2] it was -1.12%; in assay [3] it was 8.39%; in assay [4], -14%; in assay [5], -3.54%.
The corresponding values for `CC1CCCC(NC(=O)C2(C)Cn3c(cc4occc43)C(=O)N2c2ccc(Cl)cc2)C1C` (stereo not drawn) are -3.12%, 2.18%, -0.792%, -5.54% and -7.74%.
The corresponding values for `Cc1noc(C)c1-c1cc2c(cc(C)n2C)c(N2CCN(c3ccccn3)CC2)n1` are -11%, -1.33%, -7.23%, -8.51% and -0.181%.
With `COc1ccccc1NC(=O)c1sc(=S)n2c1[nH]c(=O)c1cc(Cl)ccc12`, the activity change, negative = inhibition in assay [1] is -17.4%; in assay [2], 0%; in assay [3], 0.743%; in assay [4], -4.7%; in assay [5], -13.1%.
The corresponding values for `COc1ccc(-c2cc3n(n2)CC(C)(C(=O)NCc2ccccc2)N(CCc2cccs2)C3=O)cc1` (stereo not drawn) are 4.1%, 0%, 3.45%, 7.3% and 0.391%.
As to `Cc1noc(C)c1[S+](=O)([O-])N1CCC2(CC1)Cc1ccccc1NC2=O`, the activity change, negative = inhibition in assay [1] is -12.7%; in assay [2], -12.3%; in assay [3], -4.67%; in assay [4], -20.8%; in assay [5] it was -16.3%.
For the molecule `CC(C)NC(=O)c1ccccc1OCC1CCCN(Cc2ccncc2F)C1` (stereo not drawn), the activity change, negative = inhibition is -2.88% in assay [1]; -1.57% in assay [2]; -1.54% in assay [3]; -11% in assay [4]; -4.17% in assay [5].
Turning to `CCCC1(CO)CCCN(Cc2cnn(-c3cccc(F)c3)c2)C1` (stereo not drawn), the activity change, negative = inhibition in assay [1] is -1.75%; in assay [2], -6.05%; in assay [3], -7.69%; in assay [4], -4.35%; in assay [5], -4.67%.
With `C[C@@H]1O[C@@H](O[C@H]2[C@H](O[C@H]3CC[C@@]4(C)C(CC[C@]5(C)C4CC=C4[C@@H]6CC(C)(C)CC[C@]6(C(=O)O)CC[C@]45C)[C@]3(C)CO)OC[C@H](O)[C@@H]2O)[C@H](O)[C@H](O[C@@H]2OC[C@@H](O)[C@H](O)[C@H]2O)[C@H]1O` (stereo partly drawn), the activity change, negative = inhibition was 5.48% in assay [1]; -7.46% in assay [2]; 1.36% in assay [3]; -19.1% in assay [4]; 3.25% in assay [5].
`Cn1nc(C2CC2)cc1NC(=O)C(C)(C)C`: the activity change, negative = inhibition in assay [1] is -7.09%; in assay [2], -12%; in assay [3] it was -5.66%; in assay [4] it was -15.1%; in assay [5], -11.3%.
The corresponding values for `COc1ccc(NC(=O)N2CCc3c(nc4cc(-c5ccccc5)[nH]n4c3=O)C2)c(OC)c1` are -11.4%, -7%, -13.6%, -7.79% and 4.99%.
In the same order, the values of `Cn1c(=O)n(C)c2cc(S(=O)(=O)Nc3ccc(Br)cc3)ccc21` are -13.6%, 1.43%, -7.51%, 2.37% and -10.5%.
As for `O=C(NCc1ccco1)Nc1cccc(-c2ccc(N3CCCC3)nn2)c1`, the activity change, negative = inhibition in assay [1] was -26.1%; in assay [2], -6.81%; in assay [3] it was -23.8%; in assay [4], -6.5%; in assay [5], -12.6%.
In the same order, the values of `Cc1noc2c(NC3CCOCC3)cc(-c3ccsc3)nc12` are -20.1%, -17.7%, -28%, -31.3% and -25.3%.
In the same order, the values of `CCCn1c(=O)c2ccc(C(=O)NC3CCCC3)cc2n2c(=O)n(CC(=O)c3cccc(OC)c3)nc12` are 4.17%, 0%, 3.45%, -0.237% and 0.418%.
